# Experimental data published in PubChem BioAssay (NCI).
#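 Exposure lasted 48 hours, with cells grown in 96-well plates and compounds tested at five concentrations. GI50: concentration for 50% inhibition of growth. TGI marks complete inhibition of growth.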 Numbered stars: 1 amine (or outer) side, 2 acyl side, 3 side chain; on linkers, the order of the positions; unused ones are H or OH. Square brackets hold non-standard residues; d marks the D form. Peptide text beside a SMILES is read from it. * marks the point of attachment. ξ: configuration not given here. X22 = O=C([C@H]1CCC[C@H]1N[*:1])[*:2]; ξW = NC(Cc1c[nH]c2ccccc12)C(=O)O; ξF = NC(Cc1ccccc1)C(=O)O; Boc = CC(C)(C)OC(=O)*; ξK = NCCCCC(N)C(=O)O; ξT = CC(O)C(N)C(=O)O; tBu = CC(C)(C)*
# Test system: NCI-H322M lung
# Experiment: NCI tumour cell line growth inhibition, 48 h
SMILES,TGI,GI50
CC(OC(C)(C)C)C1NC(=O)C(CCCCNC(=O)OC(C)(C)C)NC(=O)C(Cc2c[nH]c3ccccc23)NC(=O)C(Cc2ccccc2)NC(=O)[C@H]2CCC[C@H]2NC(=O)C(Cc2ccccc2)NC1=O (stereo partly specified) (cyclo([X22][ξF][ξW][ξK](Boc)[ξT](tBu)[ξF])),> 100 µM,
O=C1/C(=C\c2ccc(F)cc2)CN(C(=O)c2ccccc2)C/C1=C\c1ccc(F)cc1,76.5 µM,15600 nM
CCc1c(CN)c(CC)c(CNC2=NCCN2)c(CC)c1CNC1=NCCN1,> 100 µM,
N=C(N)c1ccc(-c2ccc(-c3ccc(Cl)cc3Cl)o2)nc1,2.99 µM,1630 nM
CC(=O)OCC(OC(C)=O)C(OC(C)=O)C(/C=N\Nc1nc2ccccc2c(=O)[nH]1)=N\Nc1nc2ccccc2c(=O)[nH]1 (stereo unspecified),> 100 µM,
Cc1c2ccnc(C(=O)NCCN(C)C)c2cc2c3cc(O)ccc3n(C)c12,4.14 µM,
N#Cc1c(NC(=O)NCc2ccccc2)sc2c1CCCC2,> 100 µM,747 nM
CCN(CC)CC(C)(C)C(=O)/C=C/c1cccc(/C=C/C(=O)C(C)(C)CN(CC)CC)c1,2.89 µM,
C[n+]1c(/C=C/c2c[nH]c3ccccc23)ccc2ccccc21,28 µM,7000 nM
COc1ccc(OC(C)=O)c2c1CCC=CC2=O,32.8 µM,
COc1cc(C2S/C(=C/c3ccccc3)C(=O)N2c2ccc(NC(C)=O)cc2)cc(OC)c1OC (stereo unspecified),74.2 µM,
CCN1CCCC(C#N)(c2ccccc2)CC1 (stereo unspecified),> 100 µM,
COc1cc(/C=C2/SC(c3ccccc3)N(Cc3ccccc3)C2=O)cc(OC)c1OC (stereo unspecified),> 100 µM,
CN(C)CCNc1nc2ccccc2c2c1CCCC2,> 100 µM,
CC(C)(C)n1c(=O)n2n(c1=O)Cc1cccc3cccc(c13)C2,> 100 µM,
O=C1NC(=S)N/C1=C\c1cc2c(=O)c3ccccc3sc2s1,> 100 µM,
Oc1ccc([Te]CCNCC[Te]c2ccc(O)cc2)cc1,84.5 µM,
CCOC(=O)c1ccc(Nc2sc(C(=O)c3ccc(Br)cc3)c(N)c2C#N)cc1,> 100 µM,5740 nM
c1ccc2c(c1)NCCC(=NC1CCCCC1)N2,> 100 µM,
Cc1ccc(/C=N/n2c(Cc3ccccc3)n[nH]c2=O)cc1,> 100 µM,
COc1ccc(NC(=S)N/N=C\c2ccc(NC(C)=O)cc2)cc1,> 100 µM,
CC[C@@H]1[C@@H](C)O[C@@](O)([C@@H](C)[C@H](O)[C@H](C)[C@H]2OC(=O)/C=C/C=C/[C@H](C)[C@@H]([C@@H](C)[C@@H](O)[C@H](C)[C@@]3(O)C[C@@H](O[C@H]4C[C@@H](O)[C@H](O)C(C)O4)[C@H](CC)[C@@H](C)O3)OC(=O)/C=C/C=C/[C@@H]2C)C[C@H]1O[C@@H]1C[C@@H](O)[C@H](O)C(C)O1 (stereo partly specified),0.205 µM,83.8 nM
CCCCCCCCCCCCCCCCCCNc1ccn(C2OC(COP(=O)(O)OCC3OC(n4cc(C)c(=O)[nH]c4=O)CC3F)C(O)C2O)c(=O)n1 (stereo unspecified),19.2 µM,
COc1cc2nc(Nc3cccc(Br)c3)nc(Nc3cccc(Br)c3)c2cc1OC,52 µM,

SMILES,TGI,GI50
O=C(CC(CC(=O)Oc1c(Br)cc(Br)cc1C(=O)O)C(=O)Oc1c(Br)cc(Br)cc1C(=O)O)Oc1c(Br)cc(Br)cc1C(=O)O,> 100 µM,
CC(=O)N(C)c1ccc(N=CN(C)C)cc1,> 100 µM,
N#Cc1cnc(-n2[nH]c3c(c2=O)CCCC3)[nH]c1=O,> 100 µM,
CCN(CC)CCNc1ccc(C)c2sc3cc(Cl)ccc3c(=O)c12,3.05 µM,1450 nM
NC(=O)C(=O)c1ncn(Cc2ccccc2)c1N,> 100 µM,
O=C1c2cccnc2S(=O)(=O)N1c1ccc(Oc2ccccc2)cc1,> 100 µM,
COc1ccccc1C1C(Cl)C(=O)N1n1cnc2ccccc2c1=O (stereo unspecified),> 100 µM,
Cc1c(C)c(C)c(CC2(C)CSC2)c(CC2(C)CSC2)c1C,> 100 µM,
O=C(c1ccco1)c1nc2cc(C(F)(F)F)ccc2nc1C(F)(F)F,> 100 µM,> 100000 nM
C(/C=C/c1ccccc1)=Nc1ccc2c(c1)Cc1ccccc1-2,> 100 µM,
Cc1ccc(Cl)cc1Nc1nc(C(F)(F)F)ccc1C(=O)N/N=C/c1cccnc1,6.39 µM,719 nM
COc1ccc2sc3cccc(NCCN(C)C)c3c(=O)c2c1,16.2 µM,4060 nM
O=C(O)CSC(CC1(c2ccc(Cl)cc2)NC(=O)CS1)c1ccc(Cl)cc1 (stereo unspecified),> 100 µM,
COc1nc2ccc(COc3ccc(C(=O)NC(CCC(=O)O)C(=O)O)cc3)cc2nc1OC (stereo unspecified),> 10 µM,
Cc1cc(Cl)cc2c(N=Nc3ccc(S(N)(=O)=O)cc3)c(O)[nH]c12,> 25 µM,> 25000 nM
CN1CCC(COc2cnc(-c3cccc(Cn4nc(-c5cccc(C#N)c5)ccc4=O)c3)nc2)CC1,22.5 µM,6220 nM
COc1cc(=O)c2c(O)c3c(O)oc(C)cc3c(OC)c2c1,68.1 µM,
CCOC(=O)c1ccccc1OC(=O)NNc1ccccc1,> 100 µM,> 38300 nM
C=C1CCCC2[C@](C)(CC3=C(Cl)C(=O)C=C(OC)C3=O)C(C)CC[C@]12C (stereo partly specified),22.1 µM,
CCCCc1ccc(Nc2nc(Cl)c3ncn(COCCOC(C)=O)c3n2)cc1,32.2 µM,
NS(=O)(=O)OCC1OC(n2cnc3cncnc32)C(O)C1O (stereo unspecified),0.0692 µM,18.8 nM
CC1(C)CC(=O)C(/C=N/C(N)=S)=C(O)C1,> 100 µM,
Cc1cc([N+](=O)[O-])ccc1Sc1c2ccccc2nc2cc(Cl)ccc12,> 100 µM,
OC(c1cc(-c2cccc(Cl)c2)nc2ccccc12)C1CCCCN1 (stereo unspecified),3.28 µM,1830 nM

SMILES,TGI,GI50
COC1C(CO)OC(n2c3ccccc3c3c4c(c5c6ccccc6[nH]c5c32)C(=O)NC4=O)C(O)C1O (stereo unspecified),0.206 µM,< 29.6 nM
CO/C=C/C(=O)c1cc2cnc3c(=N)cc(NC(=O)C(C)C)c([nH]1)c23,2.37 µM,330 nM
O=C1c2[nH]cc(CNC3CN4CCC3CC4)c2C(=O)c2c1c(O)c1ccccc1c2O (stereo unspecified),2.9 µM,1240 nM
CCCC(=O)NC(Nc1cc(C)ccn1)(C(=O)OCC)C(F)(F)F (stereo unspecified),> 100 µM,
CCCCNc1nc2ccccc2c2c1ncn2CC(C)C,> 100 µM,
O=C1C(C(O)(C(F)(F)Cl)C(F)(F)Cl)CCCC1C(O)(C(F)(F)Cl)C(F)(F)Cl (stereo unspecified),> 10 µM,
COc1cc2c(cc1C[C@H]1[C@@H]3C[C@H]4c5c(c6ccccc6n5C)C[C@@H]([C@@H]3CO[C@]1(C)OC(C)=O)N4C)c1c(n2C)C2C[C@H]3C(C(C)=O)=COC[C@H]3[C@H](C1)N2C,14.1 µM,
N#C[C@H](C(=O)c1ccccc1F)c1nc2ccccc2s1,64.1 µM,
CC(C)(C)OC(=O)N[C@H]1CC(O)c2ccccc2N(CC(=O)O)C1=O (stereo partly specified),> 100 µM,
C=C(C)[C@@H]1CC[C@]2(COCCC#N)CC[C@]3(C)[C@H](CC[C@@H]4[C@@](C)(CCCNCCC#N)[C@H](C(=C)C)CC[C@]43C)[C@@H]12,> 50 µM,> 50000 nM
CC1(C)N=C(N)N=C(N)N1c1ccc(CCCCc2ccccc2)c(Cl)c1,16.2 µM,104 nM
CCC(CC)c1nc(Nc2ccc(C(=O)OC)cc2)c2ccccc2n1,15.1 µM,447 nM
CC(=O)Nc1ccc(/C=c2\sc3nnc(CCC(=O)Nc4ccccc4Cl)n3c2=O)cc1,> 100 µM,
COc1c(O)c(OC)c2oc(-c3ccc(O)c(O)c3)c(OC)c(=O)c2c1O,> 100 µM,
COc1cc(/C=C2\C[C@H]3[C@@H]4CC=C5C[C@@H](O)CC[C@]5(C)[C@H]4CC[C@]3(C)[C@H]2O)ccc1OCCN1CCCC1,17.9 µM,9610 nM
Cn1c2ccccc2n2c3ncccc3c(=NCCCC(=O)O)c(C#N)c12,> 100 µM,
C=CCNC(=S)N=Nc1c(O)n(CN2CCOCC2)c2ccc([N+](=O)[O-])cc12,> 100 µM,
Cn1cc(C2=C(c3ccccc3[N+](=O)[O-])C(=O)NC2=O)c2ccccc21,> 22.4 µM,7390 nM
O=C(c1ccccc1)c1ccc(N2C(=O)/C(=C/Cc3ccco3)N=C2c2ccccc2)c(N2C(=O)/C(=C/Cc3ccco3)N=C2c2ccccc2)c1,> 100 µM,
O=C(/C=C/c1ccco1)c1cc(F)c(Cl)cc1Cl,57.8 µM,20000 nM
O=c1[nH]nc(Cc2ccc(Cl)cc2)n1/N=C/c1ccco1,> 100 µM,
CC(=O)N1N=C(c2ccc3ccccc3c2O)CC1c1cccs1 (stereo unspecified),> 100 µM,
CC(=O)Nc1ccc(NS(=O)(=O)c2ccc3nc(C)n(NS(=O)(=O)c4ccc(NC(C)=O)cc4)c(=O)c3c2)cc1,> 100 µM,
COC(=O)[C@@H](C)C[C@H](Cc1cn(C)c2ccccc12)NC(=O)c1csc([C@@H](C[C@H](C(C)C)N(C)C(=O)[C@@H](NC(=O)[C@H]2CCCCN2C)C(C)C)OC(C)=O)n1,> 16.7 µM,84.3 nM

SMILES,TGI,GI50
OCc1cc2c(ccc3sc4ccc5sc6ccc7ncccc7c6c5c4c32)s1,17.3 µM,
C[Si](C)(C)C#Cc1cc(-c2nc3ccccc3s2)ccc1N,31.8 µM,
CCOP(=O)(OCC)C(C)(C)N(C)/C(F)=N/C(F)(F)F,> 100 µM,
CCCCCCCCOCC(O)COC(C)C (stereo unspecified),> 100 µM,
COC(=O)CCC(NC(=S)N/N=C/c1ccccn1)C(=O)OC (stereo unspecified),> 100 µM,
Cc1ccc2c(=O)cc(Cc3cccs3)[nH]c2n1,> 100 µM,
O=C(c1cc2ccccc2[nH]1)N1C2CCC1CN(CCOC(c1ccc(F)cc1)c1ccc(F)cc1)CC2 (stereo unspecified),> 100 µM,
Cc1[nH]c(=O)nc2c1C(NCCCN(C)C)c1cc(Cl)ccc1N2 (stereo unspecified),29.4 µM,
CCOC(=O)C1=C(C)N=c2s/c(=C\c3ccccc3O)c(=O)n2C1c1ccc(OC)c2ccccc12 (stereo unspecified),59 µM,15700 nM
CC1=Nc2ccccc2NC(c2ccoc2)C1 (stereo unspecified),> 100 µM,
NC(CSCc1ccc(I)cc1)C(=O)O (stereo unspecified),> 100 µM,
COc1cccc2ccc(C(=O)c3ccccc3)nc12,> 100 µM,
O=C(C=C1SCCS1)/C=C\c1ccc(Cl)cc1,> 100 µM,
Cn1c(NNc2ccccc2)cc(=O)[nH]c1=O,> 100 µM,
CC1=C(O)c2cn(C)cc2C(=O)C1=O,> 100 µM,
O=[N+]([O-])c1ccc2nc(Cl)n[n+]([O-])c2c1,32.2 µM,
C=C(C)C1CC/C(C)=C/CCC2(C)OC2CC/C(CO)=C\C1O (stereo unspecified),> 100 µM,
Cc1cc([N+](=O)[O-])ccc1NC(=O)C(=O)C(C(=O)c1ccccc1-c1ccccc1)C1OC(=O)c2ccccc21 (stereo unspecified),34 µM,
O=C(Cn1cc(-c2ccccc2)nn1)NC1CCCCC1,> 100 µM,
CC(=O)OC1CC2CCN3C(=O)c4cc5c(cc4[C@H](C1OC(C)=O)C23)OCO5 (stereo partly specified),> 100 µM,
C=CC(=O)NCCSCCCOC1(C(=O)O)CC(O)C(NC(C)=O)C(C(O)C(O)CO)O1 (stereo unspecified),> 100 µM,
O=C1CC(c2c(-c3ccccc3)[nH]c3ccccc23)C(=O)N1 (stereo unspecified),> 100 µM,
S=C(NNC1=NCCCCN1)Nc1ccc(Cl)cc1,> 100 µM,
